Experimental data as given in ChEMBL document CHEMBL4888484, “Replenishing the malaria drug discovery pipeline: Screening and hit evaluation of the MMV Hit Generation Library 1 (HGL1) against asexual blood stage Plasmodium falciparum ,using a nano luciferase reporter read-out” (2022).
Among all 150,000 compounds or so, about 540 (0.36%) showed an effect of 50% or more. The list shows a part of the results.

What follows are compounds tested on Plasmodium falciparum (assay: Primary screen in NF54 nanoGlo assay, in single point, at 2uM, 72h; a lower Z score goes with more inhibition). Conditions: timepoint 72 hour.
Type: functional, Erythrocyte

Structure (SMILES)	% Inhibition [%]	Z score
COc1cccc([C@@H]2CCCCN2C(=O)c2cc(COc3ccc(C(C)=O)cc3)on2)c1	-3	0.28
CC1(C)[C@H]2CC=C(CN3CCC(Cn4ccnc4)CC3)[C@@H]1C2	10	-1.55
Nc1nonc1-c1noc(N2CCCC2)n1	-11	2.05
CC(C)(CNC(=O)C[C@H]1CCOC1)c1c(F)cccc1Cl	-22	1.9
CC(C)CC(=O)N[C@H]1CCC12CCOCC2	13	-1.72
Cc1nc(-n2nc(C)c(CC(=O)N3CCCC3)c2C)sc1C	7	-0.85
CC(NCC1CCc2ccccc21)c1ncn(C)n1 (stereo not given)	-12	1.73
CN1C(=O)NC2(CCN(CC#Cc3ccc(F)cc3)CC2)C1=O	-4	0.58
O=C(O)[C@H]1CCN(C(=O)CCCCc2nc3ccccc3s2)C1	0	0.02
Cc1cc(C(=O)N2Cc3ccccc3C2)cc(S(N)(=O)=O)c1C	-8	0.96
Cc1noc(OCC(=O)c2ccc(F)c(C)c2)n1	-6	0.92
Cc1cnn(CCC(=O)Nc2ccc(OC3CCCCC3O)cc2)c1 (stereo not given)	-4	0.75
CCOc1ncccc1C(=O)Nc1nc(C(C)(C)C)cc(C(C)(C)C)n1	20	-2.24
Cc1noc(C)c1CN(C)Cc1ccc(CN2CCCC2)s1	-2	0.44
Cc1cc(CNS(=O)(=O)CCOC(C)C)on1	5	-0.72
Cc1nc(C(F)(F)F)c(Cn2nc(C(C)(C)C)c(CCC#N)c2O)s1	-21	2.48
Cc1[nH]nc(-c2ccccc2Cl)c1NC(=O)CC1CCCC1	1	-0.09
Cc1ccc(CNS(=O)(=O)c2cc(-c3nc(C)c(C(=O)N4CCCC4)s3)n(C)c2)cc1	2	-0.29
CCOC1CC(N(C)S(=O)(=O)c2cn(C)nc2C2CCCC2)C1 (stereo not given)	-6	1.12
Cc1c(Cl)cccc1NC(=O)[C@H]1CCCN(c2ccc3cc(S(=O)(=O)N4CCCC4)ccc3n2)C1	-3	0.48
CCCn1cc(C(=O)N2CCn3nc([C@@H](O)CO)cc3C2)c(C)n1	-18	3.2
COC1(C)CC(N(C)C(=O)c2ccc(CN)cc2)C1(C)C (stereo not given)	-15	1.29

Structure (SMILES)	% Inhibition [%]	Z score
CCS(=O)(=O)Nc1ccc(S(=O)(=O)N[C@@H](C)c2cncs2)cc1F	-39	4.53
C[C@@H](Cn1cccn1)C(=O)N(C)Cc1ccoc1	-8	1.11
COc1ccc(S(=O)(=O)N2CCC3(CC2)Nc2ccc(C)c(C)c2-n2cccc23)cc1Cl	2	-0.26
CCn1ccnc(NCc2ccnc(NC)c2)c1=O	-9	1.74
O=C1c2ccc(Oc3cccc(Oc4ccc5c(c4)C(=O)N(c4ccccc4O)C5=O)c3)cc2C(=O)N1c1ccccc1O	6	-0.8
Cc1c(C(C)NC(=O)OCC2CCCO2)cnn1C (stereo not given)	-2	0.2
CCn1c(=O)c2ccnn2c2ccc(C(=O)N3CCCC3)cc21	-6	0.69
CCn1ccc(C(=O)N2CCC[C@](c3nnnn3CCOC)(N3CCOCC3)C2)n1	-11	1.39
COc1ccc(C(C)=O)c(OCC(=O)Nc2cccc(N3CCCC3=O)c2)c1	-8	1.3
O=C(Cc1ccc(O)cc1)Nc1ccc(Nc2ncccn2)cc1	-12	2.09
O=C(NCCc1cnn(-c2ccccc2)c1)c1cnc(Cn2cncn2)nc1O	-20	1.92
CN(C)S(=O)(=O)N(CCN1CCCC1)[C@H]1CCN(S(=O)(=O)c2cccc(F)c2)C1	29	-3.29
CC(C)c1cc(Cn2ncn3cccc3c2=O)on1	-1	0.12
O=S(=O)(Cc1nc(O)cc(C(F)(F)F)n1)Cc1noc2c1CCCC2	2	-0.25
CN(C)c1nsc(NC[C@@H]2COc3ccccc3C2)n1	-4	0.73
O=C(O)c1ccc(NCCc2cccs2)cc1	-7	1.08
Cc1cccc(CC2(NC(=O)c3cncnc3)CC2)c1	-2	0.25
Cc1ccc(-c2cc(C(F)(F)F)on2)cc1S(=O)(=O)NCCc1cccs1	-5	0.87
Cc1cccc(C(=O)N(C)Cc2cc(C)on2)n1	-8	1.05
CC1CCCCN1C(=O)c1ccc(CNC(=O)CC(NC(N)=O)c2ccccc2Cl)cc1 (stereo not given)	-2	0.19
CCN1C[C@@H](C(=O)NCc2noc(CCOC)n2)CC1=O	12	-2.06
CCN(CCOC)C(=O)[C@@H]1CCCCCN1C	-3	0.36

Structure (SMILES)	% Inhibition [%]	Z score
COc1ccccc1CCNC(=O)c1ccc(CN2CCN(c3ccc(C)cc3)CC2)cc1	-4	0.38
Cc1cccnc1NC(=O)C(=O)NCCc1c[nH]c2cccc(C)c12	31	-3.54
Cc1cc(C(=O)NC2(C)CCCC2)nc(C(F)(F)F)n1	4	-0.81
COc1ccc(C)cc1S(=O)(=O)N1CCOC[C@H]1C1CC1	2	-0.45
O=C(Cc1ccc(F)cc1)N1CCCN(C2=Nc3cc(C(F)(F)F)ccc3Oc3ccccc32)CC1	-13	2.17
CCOC1CC(N(C)C(=O)c2cc(C3CC3)on2)C12CCC2 (stereo not given)	-10	0.85
O=C(NCCc1ccccc1)c1ccc2c(c1)n(Cc1ccccc1)c(=O)c1ccnn12	-1	0.11
O=C(NCCc1cn[nH]c1)Nc1nc(C2CCCCC2)cs1	6	-0.98
CCCc1nnsc1C(=O)N1CCc2c(cnc3cc(C)nn23)C1	-2	0.32
CCOc1ccc(C(=O)NCc2ccccc2OC)nn1	-11	1.93
Cc1ccc(S(=O)(=O)n2c(=O)sc3ccccc32)cc1	-11	2.05
COCCOC[C@H]1CCN(C(=O)c2cccc(C)n2)C1	-10	1.34
O=C(Cc1ccc(F)cc1)Nc1ccc2c(c1)C(=O)N1CCC[C@H]1C(=O)N2	-3	0.48
Nc1nc(N2CCN(C3CCCCC3)CC2)ncc1C(=O)NCc1ccccc1F	-17	1.98
CCc1nc(CN(CC(C)C)C(=O)C2CCC2)[nH]c(=O)c1Cc1ccc(OC)cc1	3	-0.26
COC1(C)CN(C(=O)c2cnc(C)cn2)C1	-9	1.21
Cn1ccnc1CN[C@H](c1ccccc1)C(C)(C)C(=O)O	0	-0.06
O=C(C1OCC2COCCC21)N(CC1CCCCC1)c1ccccn1 (stereo not given)	19	-2.22
c1ccc(CC2(CNC3CC3)CC3CCC2C3)cc1 (stereo not given)	0	-0.02
COCCN1CCN(Cc2cncs2)CC1=O	-11	1.73
Cc1cc(C(=O)N2C[C@H]3CC[C@@H](C2)N(Cc2c(C)noc2C)C3=O)[nH]n1	-6	0.53
Cc1ccc2c(c1)CCCN2C(=O)CC[C@H]1CCCCO1	-8	0.98

Structure (SMILES)	% Inhibition [%]	Z score
CC[C@@H](CN(CC)C(=O)c1ccc(C(N)=O)cn1)c1ccccc1	1	-0.07
O=C(NCCNc1cc(Nc2ccccn2)ncn1)c1cccc(F)c1	-4	0.68
C[C@H]1Cc2ccccc2N1C(=O)c1cccc(S(=O)(=O)N2CCOCC2)c1	-6	0.99
Cc1ccc(C)c(CN2C[C@H](C(=O)NCc3ccncc3)C3(CCOCC3)C2)c1	2	-0.3
Cc1noc(C)c1CNC(=O)c1ccccc1	4	-0.61
COc1ccc(NC(=O)CC2(N3Cc4ccccc4C3=O)CCN(C(C)=O)CC2)cc1Cl	-1	0.19
CCCc1cc(-c2cccc(C(=O)N3CC[C@@H](O)C3)c2)nc(C)n1	-8	1.49
COCCn1nnc2cc(S(=O)(=O)N(C)CC(=O)NCc3ccc(F)cc3)ccc21	-28	2.45
CCn1c(Cn2cnc(C#N)n2)nc2cc(F)ccc21	-4	0.7
CCC1=NO[C@@H](CNC(=O)Nc2cnn(C)c2C)C1	-1	0.23
CC(C)CN1CCN2C(=O)[C@H](C)N(C(=O)CCc3nc4ccccc4s3)C[C@H]2C1=O	-12	1.09
Cc1cccc(S(=O)(=O)c2cnc(N3CCC(Cc4ccccc4)CC3)nc2N)c1	36	-4.69
O=C(NCCN1CCc2ccccc21)C1(N2CCCC2)CCCCC1	-7	1.1
Cc1cccc(N2CCN(C(=O)c3cnn4c(C(F)(F)F)cc(-c5cccs5)nc34)C[C@@H]2C)c1	0	0.04
CC(C)N1CCN(C(=O)NCc2cc(C3CC3)ccc2F)CC1	5	-0.75
CCC1CN2CCCC2CN1S(=O)(=O)CC1CCCCO1 (stereo not given)	-6	1.05
COC(=O)[C@@H](Cc1ccccc1)NC(=O)c1cc(-c2ccccc2Cl)nn1C	-15	1.71
O=S(=O)(NCC1CCCCC1)c1ccc(-n2cnnn2)cc1	-1	0.25
COc1ccc2c(c1)C(N1CCN(C(=O)c3ccc(Cl)cc3)[C@@H](C)C1)=Nc1ccc(C)cc1O2	6	-0.8
